# Test results reported in the supplement of paper PMC8728848.
# This is one part of the list.
# Assays:
# Test in all cases: glycan array binding signal (z-score within array); higher = stronger binding
# Settings in all cases: glycan notation: IUPAC condensed, linker removed
# [1] = biological target: Neu5Ac(a2-6)Gal(b1-4)GlcNAc(b1-2)Man(a1-3)[GlcNAc(b1-4)][Neu5Ac(a2-6)Gal(b1-4)GlcNAc(b1-2)Man(a1-6)]Man(b1-4)GlcNAc(b1-4)GlcNAc
# How it was run: (§1)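 Columns mapping to the same glycan were averaged after glycan names were converted to IUPAC-condensed notation. The data come from 3228 arrays in the Consortium for Functional Glycomics database, limited to those with an available protein sequence. Binding is reported as a within-array Z-score averaged across arrays of one protein sequence and across linkers.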
# [2] = biological target: Neu5Ac(a2-6)Gal(b1-4)GlcNAc(b1-2)Man(a1-3)[Man(a1-6)]Man(b1-4)GlcNAc(b1-4)GlcNAc
# How it was run: as §1
# [3] = biological target: Neu5Ac(a2-6)Gal(b1-4)GlcNAc(b1-2)Man(a1-3)[Neu5Ac(a2-3)Gal(b1-4)GlcNAc(b1-2)Man(a1-6)]Man(b1-4)GlcNAc(b1-4)GlcNAc
# How it was run: as §1
# [4] = biological target: Neu5Ac(a2-6)Gal(b1-4)GlcNAc(b1-2)Man(a1-3)[Neu5Ac(a2-6)Gal(b1-4)GlcNAc(b1-2)Man(a1-6)]Man(b1-4)GlcNAc(b1-4)GlcNAc
# How it was run: as §1
# [5] = biological target: Neu5Ac(a2-6)Gal(b1-4)GlcNAc(b1-2)Man(a1-3)[Neu5Ac(a2-6)Gal(b1-4)GlcNAc(b1-2)Man(a1-6)]Man(b1-4)GlcNAc(b1-4)[Fuc(a1-6)]GlcNAc
# How it was run: as §1
# [6] = biological target: Neu5Ac(a2-6)Gal(b1-4)GlcNAc(b1-2)Man(a1-6)Man(b1-4)GlcNAc(b1-4)GlcNAc
# How it was run: as §1
# [7] = biological target: Neu5Ac(a2-6)Gal(b1-4)GlcNAc(b1-2)Man(a1-6)[Gal(b1-4)GlcNAc(b1-2)Man(a1-3)]Man(b1-4)GlcNAc(b1-4)GlcNAc
# How it was run: as §1
# [8] = biological target: Neu5Ac(a2-6)Gal(b1-4)GlcNAc(b1-2)Man(a1-6)[GlcNAc(b1-2)Man(a1-3)]Man(b1-4)GlcNAc(b1-4)GlcNAc
# How it was run: as §1
# [9] = biological target: Neu5Ac(a2-6)Gal(b1-4)GlcNAc(b1-2)Man(a1-6)[Man(a1-3)]Man(b1-4)GlcNAc(b1-4)GlcNAc
# How it was run: as §1
# [10] = biological target: Neu5Ac(a2-6)Gal(b1-4)GlcNAc(b1-2)[Neu5Ac(a2-6)Gal(b1-4)GlcNAc(b1-4)]Man(a1-3)[GlcNAc(b1-4)][Neu5Ac(a2-6)Gal(b1-4)GlcNAc(b1-2)[Neu5Ac(a2-6)Gal(b1-4)GlcNAc(b1-6)]Man(a1-6)]Man(b1-4)GlcNAc(b1-4)GlcNAc
# How it was run: as §1
# [11] = biological target: Neu5Ac(a2-6)Gal(b1-4)GlcNAc(b1-2)[Neu5Ac(a2-6)Gal(b1-4)GlcNAc(b1-4)]Man(a1-3)[GlcNAc(b1-4)][Neu5Ac(a2-6)Gal(b1-4)GlcNAc(b1-4)Man(a1-6)]Man(b1-4)GlcNAc(b1-4)GlcNAc
# How it was run: as §1
# [12] = biological target: Neu5Ac(a2-6)Gal(b1-4)GlcNAc(b1-2)[Neu5Ac(a2-6)Gal(b1-4)GlcNAc(b1-6)]Man(a1-6)[Neu5Ac(a2-6)Gal(b1-4)GlcNAc(b1-2)Man(a1-3)][GlcNAc(b1-4)]Man(b1-4)GlcNAc(b1-4)GlcNAc
# How it was run: as §1
# [13] = biological target: Neu5Ac(a2-6)Gal(b1-4)GlcNAc(b1-3)Gal(b1-3)GlcNAc
# How it was run: as §1
# [14] = biological target: Neu5Ac(a2-6)Gal(b1-4)GlcNAc(b1-3)Gal(b1-4)GlcNAc
# How it was run: as §1
# [15] = biological target: Neu5Ac(a2-6)Gal(b1-4)GlcNAc(b1-3)Gal(b1-4)GlcNAc(b1-2)Man(a1-3)[Neu5Ac(a2-6)Gal(b1-4)GlcNAc(b1-3)Gal(b1-4)GlcNAc(b1-2)Man(a1-6)]GalNAc
# How it was run: as §1
# [16] = biological target: Neu5Ac(a2-6)Gal(b1-4)GlcNAc(b1-3)Gal(b1-4)GlcNAc(b1-3)Gal(b1-4)GlcNAc
# How it was run: as §1
# [17] = biological target: Neu5Ac(a2-6)Gal(b1-4)GlcNAc(b1-3)Gal(b1-4)GlcNAc(b1-3)Gal(b1-4)GlcNAc(b1-2)Man(a1-3)[Neu5Ac(a2-6)Gal(b1-4)GlcNAc(b1-3)Gal(b1-4)GlcNAc(b1-3)Gal(b1-4)GlcNAc(b1-2)Man(a1-6)]GalNAc
# How it was run: as §1
# [18] = biological target: Neu5Ac(a2-6)Gal(b1-4)GlcNAc(b1-3)Gal(b1-4)GlcNAc(b1-3)GalNAc
# How it was run: as §1
# [19] = biological target: Neu5Ac(a2-6)Gal(b1-4)GlcNAc(b1-3)Gal(b1-4)GlcNAc(b1-3)[Neu5Ac(a2-6)Gal(b1-4)GlcNAc(b1-3)Gal(b1-4)GlcNAc(b1-6)]GalNAc
# How it was run: as §1
# [20] = biological target: Neu5Ac(a2-6)Gal(b1-4)GlcNAc(b1-3)Gal(b1-4)GlcNAc(b1-6)[Gal(b1-3)]GalNAc
# How it was run: as §1
# [21] = biological target: Neu5Ac(a2-6)Gal(b1-4)GlcNAc(b1-3)Gal(b1-4)[Fuc(a1-3)]GlcNAc(b1-3)Gal(b1-4)[Fuc(a1-3)]GlcNAc
# How it was run: as §1
# [22] = biological target: Neu5Ac(a2-6)Gal(b1-4)GlcNAc(b1-3)GalNAc
# How it was run: as §1
# [23] = biological target: Neu5Ac(a2-6)Gal(b1-4)GlcNAc(b1-3)[Neu5Ac(a2-6)Gal(b1-4)GlcNAc(b1-6)]GalNAc
# How it was run: as §1
# [24] = biological target: Neu5Ac(a2-6)Gal(b1-4)GlcNAc(b1-6)GalNAc
# How it was run: as §1
# [25] = biological target: Neu5Ac(a2-6)Gal(b1-4)GlcNAc(b1-6)[Gal(b1-3)GlcNAc(b1-3)]Gal(b1-4)Glc
# How it was run: as §1
# [26] = biological target: Neu5Ac(a2-6)Gal(b1-4)GlcNAc(b1-6)[Gal(b1-3)]GalNAc
# How it was run: as §1
# [27] = biological target: Neu5Ac(a2-6)Gal(b1-4)GlcNAc6S
# How it was run: as §1
# Neu5Ac(a2-6)GalNAc = biological target: Neu5Ac(a2-6)GalNAc
# How it was run: as §1
# [28] = biological target: Neu5Ac(a2-6)GalNAc(b1-4)GlcNAc
# How it was run: as §1
# [29] = biological target: Neu5Ac(a2-6)GalNAc(b1-4)GlcNAc6S
# How it was run: as §1
binder,measurement,setting,value
CvGal2 (Crassostrea virginica) (protein) MGSSHHHHHHSSGLVPRGSHMRIREAGKRKDTTKVYQIPDGLFPGQQVMLRGRVPWGSKSFSINFSATPRMGEGDILFHLNPRPSEGVCIRNALLNGSWGAEEKWQPYFPFDDGRSFSVKIEVTNDAFRTFVNGRPFVDFLHRTDFRAGKYLTLREGAEYYDVIFQSKPNIPLTTAIHNGMRIGKTIRIRGMCTAQDGFAINFNDNRNNIYFHFNARPAQRTVVRNSYFGSWGNEETAISKEFPFYPFLYFYASFVCMEDKFAVYVNDEHFIDFAHRGNPNNISVLQIKGSVNVLDTECLEPMGEDAMTEVDSGLENGDLFVLNGLMTERGKTFAVNFLNGFTENDDIALHFNPRKSTGEVVLNSRYGGAWQSEEKVALPGVFWSNRPLQVKVETKRNKFKIYVNGVDLAKYKIRGNVEDVHAVQVKGDVFLLETLLLKRLMKPVWERLTGGIRPGTWVTLQGTPKKNWQQFVVNFALDDTLDGDIAFHFNVRRGARQVVRNHRQSGAWGREETVTPFFAFDSEATFEIVFFVKEEKFLIYFNGKLFFEFVHRVPVERITHIYMDGDCNFYEPEVVI,glycan array binding signal (z-score),[1],-0.325
same,glycan array binding signal (z-score),[2],-0.324
same,glycan array binding signal (z-score),[3],-0.329
same,glycan array binding signal (z-score),[4],-0.305
same,glycan array binding signal (z-score),[5],-0.331
same,glycan array binding signal (z-score),[6],-0.343
same,glycan array binding signal (z-score),[7],-0.343
same,glycan array binding signal (z-score),[8],-0.332
same,glycan array binding signal (z-score),[9],-0.334
same,glycan array binding signal (z-score),[10],-0.336
same,glycan array binding signal (z-score),[11],-0.334
same,glycan array binding signal (z-score),[12],-0.326
same,glycan array binding signal (z-score),[13],-0.282
same,glycan array binding signal (z-score),[14],-0.332
same,glycan array binding signal (z-score),[15],-0.313
same,glycan array binding signal (z-score),[16],-0.322
same,glycan array binding signal (z-score),[17],-0.317
same,glycan array binding signal (z-score),[18],-0.333
same,glycan array binding signal (z-score),[19],-0.323
same,glycan array binding signal (z-score),[20],-0.327
same,glycan array binding signal (z-score),[21],-0.321
same,glycan array binding signal (z-score),[22],-0.329
same,glycan array binding signal (z-score),[23],-0.341
same,glycan array binding signal (z-score),[24],-0.339
same,glycan array binding signal (z-score),[25],-0.133
same,glycan array binding signal (z-score),[26],-0.324
same,glycan array binding signal (z-score),[27],-0.331
same,glycan array binding signal (z-score),Neu5Ac(a2-6)GalNAc,-0.347
same,glycan array binding signal (z-score),[28],-0.341
same,glycan array binding signal (z-score),[29],-0.331
